Results: the supplement of paper PMC3334620
Over roughly 33,000 sequences, “E-score (-0.5 to 0.5)” has its median near -0.016; the highest 2% begin near 0.32. This is one part of the list.

The sequences below were run against T1, Stp1 (UniProt B3LFK1) (assay: PBM E-score (8-mer binding enrichment) (E-score (-0.5 to 0.5)); higher = stronger / more preferred TF binding; most listed sequences are background and not binding sites). Conditions: protein concentration: 200 nM; construct: GST-full length.
T1 sequence: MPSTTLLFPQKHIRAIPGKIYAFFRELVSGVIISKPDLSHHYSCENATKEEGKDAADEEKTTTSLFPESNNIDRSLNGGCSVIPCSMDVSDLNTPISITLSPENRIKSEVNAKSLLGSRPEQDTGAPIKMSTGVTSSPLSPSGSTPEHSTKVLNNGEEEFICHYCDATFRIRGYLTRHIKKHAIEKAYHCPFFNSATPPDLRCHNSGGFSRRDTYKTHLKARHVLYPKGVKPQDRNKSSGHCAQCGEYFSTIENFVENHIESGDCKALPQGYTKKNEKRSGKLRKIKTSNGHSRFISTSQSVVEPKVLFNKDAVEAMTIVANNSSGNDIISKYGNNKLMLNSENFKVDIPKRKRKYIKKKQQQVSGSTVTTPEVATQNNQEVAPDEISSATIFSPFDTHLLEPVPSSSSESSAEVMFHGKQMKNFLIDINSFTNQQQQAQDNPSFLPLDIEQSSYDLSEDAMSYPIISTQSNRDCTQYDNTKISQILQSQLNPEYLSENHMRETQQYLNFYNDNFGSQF
Outline: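 E-scores (a modified Wilcoxon-Mann-Whitney statistic) were assigned by the Universal PBM Analysis Suite to every ungapped eight-base word pooled with its reverse complement. The input came from universal all-10-mer Agilent arrays made double-stranded by primer extension and probed with GST-tagged yeast transcription factors at about 100-200 nM. Fluorescent anti-GST detected bound protein, and masliner normalised the scans.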

| Sequence | PBM E-score |
| --- | --- |
| AGTGCGTG | 0.0595 |
| ATATGAGC | 0.0539 |
| GGCATACC | 0.0293 |
| AGTAGTAC | 0.0812 |
| CAATAAGC | 0.132 |
| AACTGTTA | 0.0428 |
| CCTGCGTA | 0.0256 |
| AAGGTTAT | -0.0301 |
| CAAAGCTG | 0.113 |
| AACCGAGT | -0.292 |
| ACGCGACC | -0.182 |
| CAATCGCG | -0.0615 |
| GGCAGGGA | -0.13 |
| CCCAATTC | 0.12 |
| AGTAAGGA | -0.101 |
| TCATGGCA | -0.00249 |
| CGTCGAGC | -0.0762 |
| TAACCCAA | 0.119 |
| ACTTTCCT | -0.204 |
| CGCAAGCC | 0.136 |
| GACGGCAA | 0.325 |
| ATGACTTC | 0.00281 |
| AAGGTAAG | 0.00297 |
| TATGCGCA | -0.0223 |
| CATTTGGC | 0.0442 |

| Sequence | PBM E-score |
| --- | --- |
| GTGACTTA | -0.0523 |
| ACGCCTGA | 0.117 |
| CCCACGCC | -0.114 |
| ATACGAAT | 0.0428 |
| GTTACAGA | -0.18 |
| ATCTCTCG | -0.159 |
| CCTCATCA | 0.136 |
| TCGATTCA | -0.0587 |
| CGTAGCTC | 0.241 |
| AAGAAGGC | 0.0892 |
| CATTTAAG | 0.0486 |
| GTAAAGAA | 0.129 |
| CGAATGAC | -0.0615 |
| GCAGTTAC | -0.0185 |
| CATTATAG | -0.0525 |
| CACTCTAA | -0.0164 |
| GGGAATTA | -0.0857 |
| GACGCCTC | 0.299 |
| ACCGTTAC | -0.119 |
| GTATCCCA | -0.165 |
| GGGGTCTA | -0.144 |
| AAAGGCAA | 0.263 |
| ATTCGCAA | 0.0292 |
| CACTACTA | 0.0868 |
| CACCCATG | -0.0439 |

| Sequence | PBM E-score |
| --- | --- |
| AATATAGA | 0.131 |
| AAACTCCT | -0.195 |
| ACAGAAAA | 0.0922 |
| AGATCATA | 0.155 |
| CCGCAAGA | 0.0755 |
| GACCTTGC | -0.147 |
| AGGTGCAC | -0.151 |
| AAGTTTAT | 0.102 |
| GCATAGCA | 0.00751 |
| ACTGCTAC | -0.0776 |
| AGTTAGTA | -0.0891 |
| AGGATCTG | -0.218 |
| CTTAGCCC | -0.126 |
| AGCCGGCT | 0.00409 |
| GACGAAAA | 0.215 |
| GGTTTCCA | -0.255 |
| CGTTAGCA | 0.0863 |
| AGCATCGG | -0.0843 |
| ACCATACA | -0.233 |
| GCTAAGAA | -0.208 |
| CGTAAGAG | -0.115 |
| AGGTACCT | -0.315 |
| CGTTCGTA | 0.241 |
| ACGTACCG | -0.211 |
| GAATGATC | 0.0111 |

| Sequence | PBM E-score |
| --- | --- |
| CCTGAATC | -0.0491 |
| TATGGAGA | -0.0944 |
| CTTAGCAC | 0.024 |
| GCTATAAA | 0.0824 |
| GTTGTTAA | 0.109 |
| ATCGATAA | -0.084 |
| ACCCGTGG | -0.0825 |
| GTTTTGGA | 0.0738 |
| CTCGACAA | -0.0792 |
| CAATATGG | 0.033 |
| AACCTACG | 0.0166 |
| ACACGGAA | 0.188 |
| AGGCTTTA | 0.0579 |
| CGGGCAAA | -0.0468 |
| CAGAGCCA | -0.148 |
| ATAGATGA | 0.0525 |
| ATCCTTAC | 0.0152 |
| ATATACAG | 0.127 |
| ATGTTACA | 0.182 |
| CCAGATTA | 0.086 |
| ACCCCTTG | -0.422 |
| ACTAGTTC | -0.16 |
| GGTTAGTA | -0.0242 |
| AAAAGTAC | 0.108 |
| ATCTGCAG | 0.0578 |

| Sequence | PBM E-score |
| --- | --- |
| CGCAGTAA | 0.0664 |
| GCAGCTAA | 0.0715 |
| GAAATTAC | 0.151 |
| GCAGTCTA | -0.0152 |
| GCATCGTA | -0.00841 |
| AGTTCGGG | -0.0421 |
| CACTGTTC | -0.0611 |
| TAAGTTCA | -0.0134 |
| CTAGCAGC | -0.166 |
| GCGAACGC | 0.0627 |
| CAGCTTGC | -0.108 |
| AAGCTTTC | 0.138 |
| ACGCCTAT | 0.0662 |
| TCGACTCA | -0.163 |
| CAAGCCGG | -0.00046 |
| CGCGACCG | 0.161 |
| GAGAGCGC | -0.0618 |
| ACGGGCGG | -0.0632 |
| AAGTTTCT | 0.0419 |
| ATCCGTCA | -0.0596 |
| TCAGCAAA | 0.0382 |
| ATTTCCTA | 0.119 |
| ACTAAGGA | -0.105 |
| ATTAGAGC | 0.0403 |
| ACATCGAT | -0.0129 |

| Sequence | PBM E-score |
| --- | --- |
| TACTCAGA | 0.0701 |
| GACACGCC | 0.105 |
| AGCTGGTA | -0.238 |
| CTCAGTCA | -0.21 |
| GGAAATTA | 0.15 |
| CTGACTGC | -0.203 |
| GTGGAGGA | 0.0309 |
| GAGCCAGA | -0.0879 |
| GAGAGCCC | -0.302 |
| ACAGTCTG | -0.292 |
| CCGTCAAA | 0.0837 |
| GATTTGAA | 0.113 |
| TCGCCCGA | -0.166 |
| CGGATAGC | 0.0299 |
| ACATACCG | 0.0383 |
| AGCATCAT | -0.18 |
| AGCTCGCA | -0.077 |
| GACCACTC | -0.127 |
| CAAATTTC | 0.117 |
| TACGATAA | 0.0983 |
| AACTCGCT | -0.0606 |
| CTAGGCAC | 0.0688 |
| GTACCTCA | -0.0688 |
| AAAGGAAG | 0.0109 |
| GCCTGATA | -0.0575 |

| Sequence | PBM E-score |
| --- | --- |
| CTCGCGAA | -0.0832 |
| GCCCCTGA | -0.137 |
| AACTTGCA | 0.0268 |
| ACGGTTTG | -0.00944 |
| CGGGATCC | 0.0611 |
| CTTTACTA | 0.193 |
| CCGTGAAA | 0.183 |
| CCTCTTCA | -0.00988 |
| ATAAGTAA | 0.118 |
| ATAAATAA | 0.302 |
| CAATGGAA | 0.0796 |
| GTGAGCCA | 0.00543 |
| CCGGTCCC | -0.22 |
| ATTACGAG | 0.0563 |
| TCGTCACA | 0.0525 |
| AGAAAAAC | 0.0418 |
| CTCTTAGA | 0.015 |
| CACATGCG | 0.0837 |
| ACATCATA | -0.0287 |
| CCATCCCC | -0.148 |
| AGATTATG | 0.0136 |
| AATTAGCC | 0.136 |
| AGCGTGGG | -0.291 |
| GGCCACGA | 0.0462 |
| CCCACTGC | 0.0181 |

| Sequence | PBM E-score |
| --- | --- |
| CAGCCCAA | -0.106 |
| TAGCTCCA | -0.0885 |
| CGAACCGA | 0.101 |
| AGTGGCGG | -0.0409 |
| TCGTGCCA | 0.177 |
| CAGGGACG | -0.108 |
| TCGGCCAA | -0.055 |
| CGAATGGC | 0.181 |
| CACTAGCA | -0.182 |
| ATGGGCTG | -0.25 |
| AGATACGA | 0.0642 |
| TACCAAAA | 0.11 |
| CATTCTTC | -0.0959 |
| GTAACGAC | 0.0501 |
| AACTAAAT | 0.0174 |
| ACAGGCCC | -0.35 |
| AATCACCA | 0.0585 |
| CCACTTTC | -0.21 |
| CCTTTGAA | -0.0337 |
| CATAGTAA | 0.108 |
| TCGCCACA | 0.21 |
| CGTGATTC | -0.0502 |
| ACGGGGGC | -0.325 |
| ACTATCAC | -0.0551 |
| AAGGTACT | -0.0149 |

| Sequence | PBM E-score |
| --- | --- |
| CTGTGGCA | 0.0462 |
| TAGATCCA | 0.0726 |
| GGGGCCGA | -0.309 |
| CAAAGTGC | 0.106 |
| GATCCTAC | -0.1 |
| CGCCACAA | 0.115 |
| ACTCCCCT | -0.277 |
| ATCGCGAT | 0.171 |
| CCAGACAG | -0.13 |
| TGGTGACA | -0.0418 |
| CGCTGGTC | -0.169 |
| ATCTCTGG | -0.258 |
| AGGTGTAA | 0.0291 |
| CATATATC | 0.0255 |
| AAGTACCC | -0.132 |
| GAGGCGGA | -0.00688 |
| CCAACAGC | -0.0402 |
| ACTCGTAA | 0.115 |
| CCTGTTAG | 0.0323 |
